This is an account of results in the supplement of paper PMC11417369.

± gives the standard deviation of the averaged measurements. This is one part of the list.

The test has as its system PfAP2-I AP2 domain 3 (GST-tagged). As to the kind of experiment: gcPBM binding intensity (ln(normalized median fluorescence intensity)); higher = stronger DNA binding. In outline:
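GST-tagged P. falciparum DNA-binding domains produced in E. coli were incubated for 1 h on an Agilent 4 × 180k array of primer-extended double-stranded 36-bp intergenic genomic probes with negative controls. Binding intensity is the highest Masliner-normalised natural-log median intensity across replicate spots of either probe orientation, with bound protein detected by Alexa488 anti-GST antibody at 488 nm.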
“AAATAACACATATATACACACATATAAATATAATAT [CACACA_site2692]”: the “gcPBM binding intensity (ln)” value amounted to 7.8 ± 0.45.
As for “TTTGTTTTAAATCGAAGTACACATAATTATATTTTA [XGTACX_site1541]”, the figure is 7.72 ± 0.19; as for “AATTATTTTTTGTATGAACACACAACTTAATTATGA [CACACA_site8774]”, 7.62 ± 0.57; as for “TTGAATGTAGTTAAATGTACATGTAATATATAAAAA [XGTACX_site1250]”, 8.03 ± 0.54.
As for “TATATATATACATAATGTACATTTTATAAATTTACA [XGTACX_site5283]”, the figure is 8.66 ± 0.24; as for “ATATTTTAAATGTTATGTACACATTTGTTGTTTACA [XGTACX_site7353]”, 7.93 ± 0.28.
With “AATATTATTATTATTACACACACAATTATATTTACC [CACACA_site8061]” the figure was 7.93 ± 0.38; with “ATTTTTTTTTTTATTTTCTTTGAGATTATCTTAATT [CACACA_negctrl_site1209]”, 7.55 ± 0.69.
Consider “TTAATTTGTTCTTACACACACATATATATATATTTA [CACACA_site1185]”, for which the “gcPBM binding intensity (ln)” value is 8.11 ± 0.37.
In the case of “ACTACCTATATTTAAGCATGCAAAAAATAAAAATAT [TGCATGCA_site238]”, the “gcPBM binding intensity (ln)” value stood at 8.04 ± 0.63.
As for “ATAAATTGTTCTTTTTGTGTAAACAGAATATTAAAA [CACACA_negctrl_site1022]”, the figure is 7.55 ± 0.54; as for “TGTACAACAATTTTTGCACACACCAAAACATAAAAT [CACACA_site1598]”, 8.95 ± 0.13; as for “AGAAAAGAAATTAAATGTACACAACTATAACCAAAT [XGTACX_site8084]”, 8.28 ± 0.49.
With “AAAAAAAAAAAATAAAGTACTAAATAATACATTATA [XGTACX_site6203]”, the “gcPBM binding intensity (ln)” value was determined as 7.42 ± 0.13.
As for “TTTTATAAAATATAATATAATAATATATGTATAATA [CACACA_negctrl_site1788]”, the figure is 7.42 ± 0.49.
In the case of “ATATATCTACAAATATGTACACACACACATATATAT [XGTACX_site1075]”, the “gcPBM binding intensity (ln)” value was 8.12 ± 0.53.
As for “AAAAAAAAAAAAAAAAAAAAAAAAATCACACATTGG [TGCATGCA_negctrl_site412]”, the figure is 9.71 ± 0.085; as for “TTTTGGATGTATTATACATGCATATTATTATAATAT [TGCATGCA_site997]”, 8.24 ± 0.68.
With “ATCTGAAAAATTAATAGTACAATTAATAATTAAACC [XGTACX_site8523]” the figure was 7.9 ± 0.48; with “AAACAAAAAAGAAGCACACATATATATATATATATG [CACACA_site2456]”, 8.44 ± 0.6; with “TATACGCATATATACACACACATATATATATATATA [CACACA_site3416]”, 9.43 ± 0.66.
With “AACAAACAAATAGTTTATTTTGATTTTTTTAAAAAT [CACACA_negctrl_site693]” the figure was 7.36 ± 0.65; with “TGTTAATTTCATTTTCTACACACCTATCCTTTTTTT [CACACA_site8157]”, 7.88 ± 0.66.
“ACAAATAAATATTCGCGTACTTATATAATATTACGA [XGTACX_site6428]”: the “gcPBM binding intensity (ln)” value is 7.95 ± 0.18.
“AAAAAAAATATCCGACGTACTATTTTCGTAGAAATA [XGTACX_site6292]”: the “gcPBM binding intensity (ln)” value was 7.53 ± 0.54.
“TCATATGTGAAACACACACACACACCCAAAAAAACA [CACACA_site3247]”: the “gcPBM binding intensity (ln)” value is 8.06 ± 0.16.
In the case of “TGTTTCTTATTTTTTTCACACACTAATCATTTCAAA [CACACA_site8695]”, the “gcPBM binding intensity (ln)” value worked out at 8.16 ± 0.57.
As for “ATTATGTTATTATTTTGTACACATAAATAATACGTT [XGTACX_site816]”, the figure is 7.9 ± 0.52.
As for “GAACAAAAATACTTATGTACACATTAGCAAGGAAAA [XGTACX_site5622]”, the figure is 8.06 ± 0.73.
Consider “AAATTTTTTTTTGTCATATGATGTTTGAACCCAAAT [CACACA_negctrl_site1659]”, for which the “gcPBM binding intensity (ln)” value was determined as 7.67 ± 0.49.
With “TCCGTATATTTATACGCATGCATTATGAACATTGTT [TGCATGCA_site613]” the figure was 7.89 ± 0.8.
Turning to “AAAAAAAATAATTTGCGTACATAAAAATTTATAGGA [XGTACX_site3016]”, the “gcPBM binding intensity (ln)” value was found to be 7.92 ± 0.42.
As for “ATGTAGACTGAAACCACACACACATATATATATATA [CACACA_site606]”, the figure is 9.36 ± 0.014.
With “GGATTACAAATAGGTTGTACGTTTTTTTTTTTTTCT [XGTACX_site3605]”, the “gcPBM binding intensity (ln)” value is 7.79 ± 0.69.
With “TTACATTGTAAAAAGTGTACATATAATTTAATTAAT [XGTACX_site1834]” the figure was 8.05 ± 0.49; with “TCCACATTAATGTAATGTACAAAATTAGAAAATAAA [XGTACX_site6287]”, 7.71 ± 0.34; with “AATATAAATACTCCTACACACATATAAATATAAATA [CACACA_site7419]”, 7.83 ± 0.38.
With “TTTTGATTAAGTGAATTTTTTTATTTATATAAATAT [TGCATGCA_negctrl_site479]” the figure was 7.54 ± 0.56.
As for “CATACATACATATATACACACATATATAATAATATA [CACACA_site2678]”, the “gcPBM binding intensity (ln)” value is 8.13 ± 0.29.
As for “TACGAATTAAAAAAGAGTACAAATAAAATATCTACA [XGTACX_site7412]”, the figure is 7.53 ± 0.44.
As for “TTTTAAACACCAATCAAAAAAATATAAATATAAATA [TGCATGCA_negctrl_site552]”, the figure is 7.61 ± 0.54; as for “AATTAGCTCAAAGGTTGTACAAATATATTTTAATGG [XGTACX_site2352]”, 8.04 ± 0.33; as for “ATATATATATCTAATTGTACATATTTTATAAATAAG [XGTACX_site4840]”, 8.635 ± 0.078.
As for “AAAAATTAAATGTACACACACCTTAAACAATGTCAT [CACACA_site6958]”, the figure is 7.96 ± 0.25.
